Data: the supplement of paper PMC4166925
± gives the standard deviation of the averaged measurements. Whole data set: some 33,000 sequences, median “E-score (dimensionless, -0.5 to 0.5)” near -0.046, cut for the highest 2% near 0.36. This is one part of the list.

tested on: T1, SpTbr T-box DNA-binding domain (GST fusion); assay: PBM E-score of 8-mer (E-score (dimensionless, -0.5 to 0.5)); Tbr is Tbrain of the sea star Patiria miniata (Pm) or the sea urchin Strongylocentrotus purpuratus (Sp); higher = stronger binding preference; most listed sequences are background and not binding sites; settings: the construct has about 5 more residues each side
T1 sequence: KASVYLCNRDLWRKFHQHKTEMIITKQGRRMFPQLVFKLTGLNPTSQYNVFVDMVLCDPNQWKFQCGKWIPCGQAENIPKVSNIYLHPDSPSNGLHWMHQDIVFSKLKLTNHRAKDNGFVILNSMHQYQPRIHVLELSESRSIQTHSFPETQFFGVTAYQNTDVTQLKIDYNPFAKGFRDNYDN
Procedure, shortened: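 Primer extension turned Universal Agilent oligonucleotide arrays double-stranded. They were incubated with 200 nM protein in PBS (pH 7.5); the protein was a GST-fused Tbr T-box DNA-binding domain expressed in BL21 E. coli at 20 °C and purified on glutathione. Every ungapped 8-mer was scored from the scanned, quantified probe intensities, and the Universal PBM Analysis Suite gave each an enrichment E-score averaged over duplicate arrays.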

Row | Sequence | PBM E-score of 8-mer
1 | AGTCCCGC | -0.0227 ± 0.052
2 | ACGTTGGA | -0.135 ± 0.066
3 | CACCTATA | 0.392 ± 0.015
4 | AGACGTCG | -0.0995 ± 0.079
5 | GACGGTAA | -0.0456 ± 0.024
6 | CTCCAATA | -0.156 ± 0.004
7 | CAATTAGG | 0.147 ± 0.066
8 | ACAAAGGA | -0.0763 ± 0.049
9 | ATCGGCCG | -0.2382 ± 0.0013
10 | GAAGCGAA | -0.0531 ± 0.12
11 | ATGATTAA | -0.0561 ± 0.013
12 | TCACACGA | 0.387 ± 0.0091
13 | ACAGACTG | -0.139 ± 0.066
14 | ACATTCGT | 0.0884 ± 0.062
15 | AGTATCGG | -0.0105 ± 0.054
16 | GCCCTGAC | -0.0195 ± 0.058
17 | TACACTGA | 0.00374 ± 0.063
18 | GTAAAGAC | -0.0781 ± 0.036
19 | CACTGAGC | 0.00197 ± 0.0073
20 | GTGAGAAC | 0.4469 ± 0.0042
21 | ATTAATTC | -0.207 ± 0.076
22 | AGGGATCA | -0.022 ± 0.095

Row | Sequence | PBM E-score of 8-mer
23 | AGCAACCC | 0.0294 ± 0.035
24 | CCCTCAAA | -0.0653 ± 0.13
25 | AACGGGGT | -0.127 ± 0.006
26 | CGGAAACC | 0.175 ± 0.018
27 | ACAAATGC | -0.0364 ± 0.03
28 | AGAAAACA | 0.0295 ± 0.051
29 | AAAGGACA | 0.0207 ± 0.05
30 | TAGCCGCA | 0.0217 ± 0.05
31 | GTCATGGA | -0.0759 ± 0.081
32 | CAGGACAG | -0.0574 ± 0.018
33 | ATCAAATC | -0.22 ± 0.01
34 | CCGATTAC | 0.07 ± 0.041
35 | AATTGAGA | -0.0508 ± 0.076
36 | GAGGCCAA | -0.16 ± 0.036
37 | TACCACTA | -0.0994 ± 0.024
38 | AAGAAACA | -0.0506 ± 0.011
39 | GGGCACCC | -0.2 ± 0.022
40 | ACCAGTAT | -0.111 ± 0.068
41 | GTAGACCA | -0.0855 ± 0.051
42 | AATATCGT | -0.123 ± 0.002
43 | TGCTAACA | 0.369 ± 0.022
44 | CGTTTCAA | -0.029 ± 0.015

Row | Sequence | PBM E-score of 8-mer
45 | ATTGGATA | -0.212 ± 0.011
46 | ACCTGGCA | 0.227 ± 0.034
47 | ATCTTATG | -0.187 ± 0.032
48 | ACTGGGTA | -0.132 ± 0.036
49 | AAATTTCA | -0.0215 ± 0.17
50 | AGGGCAGG | -0.285 ± 0.058
51 | CGGGAGGA | -0.127 ± 0.073
52 | GATGGCGA | 0.142 ± 0.012
53 | AGAATACA | 0.00377 ± 0.032
54 | CAATGACA | 0.203 ± 0.013
55 | CTACAGCA | -0.181 ± 0.015
56 | GAGACCAA | 0.115 ± 0.032
57 | AATTAAGA | -0.276 ± 0.046
58 | GATCTTCA | -0.0222 ± 0.061
59 | GCCTTTTA | -0.0926 ± 0.034
60 | ACTAAAAA | -0.09237 ± 0.00071
61 | CTCGAAAG | -0.00025 ± 0.0061
62 | ACTCCCAA | -0.114 ± 0.051
63 | CGTTCTAG | -0.121 ± 0.0086
64 | CTAGACAG | -0.13 ± 0.095
65 | ACTAGTAC | -0.0462 ± 0.018
66 | GAGACATA | -0.0863 ± 0.009

Row | Sequence | PBM E-score of 8-mer
67 | CGATCACA | 0.396 ± 0.0068
68 | GCTGTTGA | 0.0254 ± 0.016
69 | CCCTAATA | -0.254 ± 0.0084
70 | GCATTCAA | -0.124 ± 0.036
71 | ACGATGAG | -0.0616 ± 0.043
72 | GTGTGCAA | 0.349 ± 0.0091
73 | CCACCCCA | 0.157 ± 0.027
74 | CGGACGCA | 0.00632 ± 0.00052
75 | ATATTACG | -0.204 ± 0.045
76 | CATAAGTA | -0.114 ± 0.018
77 | CGCCTGAG | -0.0319 ± 0.0048
78 | GAAATAAA | -0.00915 ± 0.082
79 | CGACCGCG | 0.163 ± 0.0064
80 | ACACACCT | 0.44741 ± 0.0002
81 | AATGGTAA | -0.0737 ± 0.019
82 | CAAACTGA | -0.0249 ± 0.0038
83 | ATGGGACA | -0.0727 ± 0.059
84 | GCACGGCC | -0.0241 ± 0.019
85 | ACTATGAT | -0.173 ± 0.003
86 | ACATTAGC | 0.0163 ± 0.082
87 | CATTAGAA | -0.146 ± 0.024
88 | ACTTACTC | 0.147 ± 0.023

Row | Sequence | PBM E-score of 8-mer
89 | CGCCTCGC | 0.256 ± 0.0026
90 | CGCCCGTA | -0.0039 ± 0.045
91 | ACCACGAG | -0.00539 ± 0.052
92 | AGCTTGTC | 0.098 ± 0.066
93 | AATGATCG | -0.00734 ± 0.11
94 | ATTTATAG | -0.248 ± 0.074
95 | CTCCTCGC | 0.117 ± 0.07
96 | AGCCGCTC | -0.0902 ± 0.017
97 | ATATGCGG | -0.139 ± 0.049
98 | CAAGTACC | -0.095 ± 0.12
99 | ACGGAGTG | 0.154 ± 0.025
100 | AGCGCCAT | 0.0577 ± 0.043
101 | AGATCCCT | -0.108 ± 0.031
102 | AACTCTAG | -0.123 ± 0.014
103 | AGGTCGGC | -0.0758 ± 0.092
104 | AGCCGCTG | -0.0377 ± 0.025
105 | ACCCGTGA | 0.248 ± 0.011
106 | CACCTTCA | 0.412 ± 0.0047
107 | CTGCTAAC | 0.321 ± 0.029
108 | ACCACACC | 0.369 ± 0.029
109 | AAGGAGGT | 0.185 ± 0.028
